Measured values from the supplement of paper PMC4604168 (melanoma cell lines).
The other results are listed elsewhere or left out. Repeats are few or missing, and single values can be far off.

Legend:
Test in all cases: cell count relative to DMSO control; melanoma cells; higher = more viable cells
Conditions in all cases: library dose: standard library concentration; 72 h
[1] = system: G361
[2] = system: IPC-298
[3] = system: IST-MEL1
[4] = system: LB2518-MEL
[5] = system: LOXIMVI
[6] = system: MEL-HO
[7] = system: MZ2-MEL
[8] = system: MeWo
[9] = system: RPMI7951
[10] = system: RVH-421
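Further: cells treated in 1,536-well plates, then fixed and DAPI-stained, with nuclei counted from automated high-throughput microscope images.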

SMILES	cell count [1]	cell count [2]	cell count [3]	cell count [4]	cell count [5]	cell count [6]	cell count [7]	cell count [8]	cell count [9]	cell count [10]
C=C(c1ccc(C(=O)O)cc1)c1cc2c(cc1C)C(C)(C)CCC2(C)C [Bexarotene] + CCN(CC)CCCCNc1ncc2cc(-c3cc(OC)cc(OC)c3)c(NC(=O)NC(C)(C)C)nc2n1 [PD173074] (first compound 10 µM, partner dose 0.5 µM)	69.7%	82.2%	98.7%	114%	88.4%	88%	73%	94.1%	73.1%	96.8%
CS(=O)(=O)c1ccc(C(=O)Nc2ccc(Cl)c(-c3ccccn3)c2)c(Cl)c1 [vismodegib] + Cc1cc([N+](=O)[O-])ccc1NS(=O)(=O)c1cc(Cl)ccc1Cl [FH535] (first compound 5 µM, partner dose 5 µM)	56.3%	46.6%	51.9%	71.1%	66.8%	55.7%	78.7%	73.8%	80.9%	64.5%
CCCS(=O)(=O)Nc1ccc(F)c(C(=O)c2c[nH]c3ncc(Cl)cc23)c1F + O=C(Nc1ccccc1)c1cc([N+](=O)[O-])ccc1Cl [GW9662] (first compound 0.4 µM, partner dose 10 µM)	73.6%	94.7%	83.9%	81.7%	93.3%	81.9%	72.8%	75.6%	77.1%	77.7%
CS(=O)(=O)c1ccc(C(=O)Nc2ccc(Cl)c(-c3ccccn3)c2)c(Cl)c1 [vismodegib] + N#Cc1c(O)c2c(-c3ccc(-c4ccccc4O)cc3)csc2[nH]c1=O [A769662] (first compound 5 µM, partner dose 10 µM)	88.3%	90.7%	95.1%	105%	116%	94.1%	97.7%	89.5%	100%	101%
NC1(c2ccc(-c3nc4ccn5c(=O)[nH]nc5c4cc3-c3ccccc3)cc2)CCC1 + COc1ccc(Cl)c(Nc2nc3ccccc3nc2NS(=O)(=O)c2cccc(NC(=O)C(C)(C)N)c2)c1 [XL147] (first compound 2 µM, partner dose 4 µM)	75.1%	68%	49.8%	71.2%	75.5%	55.1%	80.7%	69.3%	84.2%	69.1%
NC1(c2ccc(-c3nc4ccn5c(=O)[nH]nc5c4cc3-c3ccccc3)cc2)CCC1 + CN1CCN(c2ccc3nc(-c4c(N)c5c(F)cccc5[nH]c4=O)[nH]c3c2)CC1 [Dovitinib] (first compound 2 µM, partner dose 0.5 µM)	48.7%	56.1%	54.8%	43.2%	64.9%	50.9%	45.1%	41.5%	58.6%	68.9%
NC1(c2ccc(-c3nc4ccn5c(=O)[nH]nc5c4cc3-c3ccccc3)cc2)CCC1 + CCN(CC)CCCCNc1ncc2cc(-c3cc(OC)cc(OC)c3)c(NC(=O)NC(C)(C)C)nc2n1 [PD173074] (first compound 2 µM, partner dose 0.5 µM)	92.8%	93.4%	97.7%	103%	79.7%	84.9%	95.9%	87.9%	95%	97.9%
NC1(c2ccc(-c3nc4ccn5c(=O)[nH]nc5c4cc3-c3ccccc3)cc2)CCC1 + C#Cc1cccc(Nc2ncnc3cc(OCCOC)c(OCCOC)cc23)c1 [erlotinib] (first compound 2 µM, partner dose 4 µM)	71.1%	57.8%	74.7%	60.4%	50.7%	50.3%	70.9%	61.9%	56.9%	74.1%
NC1(c2ccc(-c3nc4ccn5c(=O)[nH]nc5c4cc3-c3ccccc3)cc2)CCC1 + COc1ccc(-c2ccc3c(N4CCOCC4)nc(N4C[C@@H](C)O[C@@H](C)C4)nc3n2)cc1CO [KU0063794] (first compound 2 µM, partner dose 0.1 µM)	58.2%	75.8%	86.1%	71.8%	56.3%	54.9%	61%	68.1%	76.8%	66.1%
C=C(c1ccc(C(=O)O)cc1)c1cc2c(cc1C)C(C)(C)CCC2(C)C [Bexarotene] + Cn1nnc2c(C(N)=O)ncn2c1=O [temozolomide] (first compound 10 µM, partner dose 10 µM)	68.4%	108%	69.2%	151%	69.9%	76.1%	92.3%	103%	84.7%	71.6%
